Assay results as given in ChEMBL document CHEMBL1201862, “PubChem BioAssay data set” (2004).
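Cells were grown in 96-well plates and exposed to each compound for 48 hours at five concentrations; endpoints were interpolated linearly between bracketing concentrations, or set to the highest concentration if not reached. GI50 = concentration required for 50% inhibition of growth.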 Activity calls are given as the source filed them. Rule as the data show it: active = GI50 up to about 1.1 µM and inactive = higher.

system: NCI-H322M; assay: NCI anticancer screen, dose series, 48 h

Which GI50 does the source give for `NC1C2(CCCCCC2)NC(=O)C12CCCCCC2` (stereo not given) here?
The GI50 was inactive: > 100 µM.

With `C=CCn1c(=O)n(CC=C)c(=O)n(CC=C)c1=O` as the compound, how does the GI50 read?
Its GI50 is inactive: > 100 µM.

For `CCCCCCCCCCCCCCCCCCOCC(O)COP(=O)(O)OCC1OC(n2ccc(N)nc2=O)C(O)C1O` (stereo not given), which GI50 is on record?
The GI50 was inactive: 19.8 µM.

For `CCOC(=O)/C=C(/C(=O)OCC)n1cc(C)c(=O)n(Cc2cn(COCCOC(C)=O)nn2)c1=O`, which GI50 is on record?
Its GI50 is inactive: > 100 µM.

With `CC1(C)N=C(/C(C#N)=[N+](/[O-])C(=O)c2ccccc2)C(C)(C)N1O` as the compound, how does the GI50 read?
Its GI50 is inactive: > 100 µM.

Which GI50 does the source give for `CC(C)(C)C1CC[C@H]2c3c([nH]c4ccc(Br)cc34)[C@H]3C(=O)N(c4ccccc4)C(=O)[C@H]3[C@H]2C1` (stereo not given in full) here?
Its GI50 is inactive: 85.7 µM.

`CN(CN1C(=O)C2Cc3ccccc3CN2C1=O)c1ccccn1` (stereo not given) was tested. Which GI50 did it give?
The GI50 was inactive: > 100 µM.

How did the GI50 turn out when `C1=N/CCNCCNCC/N=C/c2ccccc2OCc2cccc(n2)COc2ccccc2/1` was run?
Its GI50 is inactive: > 100 µM.

How did the GI50 turn out when `COC(=O)c1sc(=S)sc1SCc1cccc(CSc2sc(=S)sc2C(=O)OC)c1` was run?
Its GI50 is inactive: > 100 µM.

For `CS(=O)(=O)Sc1ccc(Cl)cc1`, which GI50 is on record?
Its GI50 is inactive: 9.95 µM.

With `N=C(N)N/N=C\c1c(-c2cccc([N+](=O)[O-])c2)nc2sc(Cl)cn12` as the compound, how does the GI50 read?
Its GI50 is inactive: 2.16 µM.

`Clc1ccc(Nc2nnc(CNc3ccc(-c4nnc(Nc5ccc(Cl)cc5)o4)cc3)o2)cc1` was tested. Which GI50 did it give?
Its GI50 is inactive: 26.4 µM.

How did the GI50 turn out when `OCC1CC2C=CCC(C2)C1` (stereo not given) was run?
The GI50 was inactive: > 100 µM.

How did the GI50 turn out when `Clc1ccc2c(NCCNc3ccnc4cc(Cl)ccc34)ccnc2c1` was run?
Its GI50 is inactive: 15.3 µM.

Which GI50 does the source give for `Cc1ccc(NC(=O)CCC(=O)C(C#N)c2ccc(Cl)cc2)cc1C` (stereo not given) here?
The GI50 was inactive: > 100 µM.

Which GI50 does the source give for `COc1ccccc1C1C(C(=O)Nc2ccccc2)=C(C)NC(C)=C1C(=O)Nc1ccccc1` here?
Its GI50 is inactive: > 100 µM.

With `COC(=O)c1c(C)cccc1C1CN=NC12Cc1ccc(C)c(C)c1C2=O` (stereo not given) as the compound, how does the GI50 read?
Its GI50 is inactive: 98.2 µM.

With `COC(=O)c1ccc2c(c1)CC1(C2)Cc2ccccc2C1=O` (stereo not given) as the compound, how does the GI50 read?
The GI50 was inactive: > 100 µM.

How did the GI50 turn out when `CCOc1ccc(C2=C(Cl)c3cc(OC)c(OC)cc3C2Cl)cc1` (stereo not given) was run?
The GI50 was inactive: 52.7 µM.

`COc1cc(C2SCC(=O)N2c2ccc(-n3c(-c4ccccc4)nc4ccccc4c3=O)cc2)cc(OC)c1OC` (stereo not given) was tested. Which GI50 did it give?
The GI50 was inactive: > 100 µM.

With `Cc1nn2c(=O)c([N+](=O)[O-])c(/C=C/c3ccccc3)nc2s1` as the compound, how does the GI50 read?
Its GI50 is inactive: 4.12 µM.

Which GI50 does the source give for `O=[N+]([O-])c1ccc(NN/N=N/c2ccc(-c3nc4ccccc4[nH]3)cc2)c([N+](=O)[O-])c1` here?
Its GI50 is inactive: 62.2 µM.

Which GI50 does the source give for `CCNCCCCNCC` here?
The GI50 was inactive: > 3750 µM.

With `C=C(CS(=O)(=O)c1ccccc1)C(=O)OCC` as the compound, how does the GI50 read?
The GI50 was inactive: 16.5 µM.

Which GI50 does the source give for `CN1CCc2[nH]c3ccccc3c2C1` here?
Its GI50 is inactive: > 100 µM.

`CC1=NC(C(C)C)C(=O)O1` (stereo not given) was tested. Which GI50 did it give?
Its GI50 is inactive: > 100 µM.

For `COc1ccccc1NC(=O)C(=O)C(C(=O)c1ccccc1F)C1OC(=O)c2ccccc21` (stereo not given), which GI50 is on record?
The GI50 was inactive: 25.2 µM.

How did the GI50 turn out when `CCN(CC)c1c(C(C)(C)C)c(=O)n2ccsc2c1OC(C)=O` was run?
Its GI50 is inactive: 17.9 µM.

For `NC(CC(=O)O)(Cc1ccccc1)C(=O)O` (stereo not given), which GI50 is on record?
The GI50 was inactive: > 100 µM.

With `CCN1C(=O)N(C)C(O)c2c1nc1ccccn1c2=O` (stereo not given) as the compound, how does the GI50 read?
Its GI50 is inactive: 30.1 µM.

Which GI50 does the source give for `O=C(O)C1C(Br)(c2ccccc2)C1(Br)c1ccccc1` (stereo not given) here?
Its GI50 is inactive: 29.9 µM.

Which GI50 does the source give for `CC(=O)N1[C@H](C(=O)O)CS[C@H]1c1ccc(F)cc1` here?
The GI50 was inactive: > 100 µM.

With `COc1ccc(/C=C/C(=O)C(C)(C)CN2CCCCC2)cc1` as the compound, how does the GI50 read?
The GI50 was inactive: 25.1 µM.

`COC(=O)C(CC(C)C)NC(=O)C(NC(=O)c1ccc(-c2ccc(Cl)cc2Cl)o1)C(C)C` (stereo not given) was tested. Which GI50 did it give?
The GI50 was inactive: 29.6 µM.

For `CC(=O)OCC1OC(n2c(=O)n(-c3ccccc3)c(=O)c3ccccc32)C(OC(C)=O)C(OC(C)=O)C1OC(C)=O` (stereo not given), which GI50 is on record?
Its GI50 is inactive: > 100 µM.

`Cc1cccc(-n2c(C)nc3ccc(NC(=S)Nc4ccccc4)cc3c2=O)c1` was tested. Which GI50 did it give?
The GI50 was inactive: > 100 µM.

With `Cc1nc(Nc2ccccc2)sc1C(=O)CC(=O)C(=O)NC12CC3CC(CC(C3)C1)C2` as the compound, how does the GI50 read?
Its GI50 is inactive: > 100 µM.

`COC(=O)c1cc(Br)c(C(=O)C(Cl)(Cl)Cl)[nH]1` was tested. Which GI50 did it give?
Its GI50 is inactive: > 100 µM.

With `COC(=O)C1(c2ccc(N(C)C)cc2OC)CCCN(C(=O)Oc2ccccc2[N+](=O)[O-])CCc2c1[nH]c1ccccc21` (stereo not given) as the compound, how does the GI50 read?
Its GI50 is inactive: > 100 µM.

Which GI50 does the source give for `Cc1n[nH]c(=O)n1/N=C/c1cccnc1` here?
Its GI50 is inactive: > 100 µM.

For `CC1=NN(C(=O)c2ccncc2)C(=O)C1/N=N/c1ccc(F)cc1` (stereo not given), which GI50 is on record?
The GI50 was inactive: > 100 µM.

For `Cc1ccc(C)c(COCCOCn2cc(N3CCOCC3)c(=O)[nH]c2=O)c1`, which GI50 is on record?
The GI50 was inactive: > 100 µM.

`C1COC(NC(C2CC2)C2CC2)=N1` [RILMENIDINE] was tested. Which GI50 did it give?
The GI50 was inactive: > 100 µM.

Which GI50 does the source give for `COc1cc(/C=C/c2ccc(OC)c(OC)c2OC)cc(OC)c1OC` here?
Its GI50 is inactive: 26 µM.

Which GI50 does the source give for `CCC(=O)NC(Nc1cc(C)on1)(C(F)(F)F)C(F)(F)F` here?
The GI50 was inactive: > 100 µM.
